# According to paper PMC12136788:
# The other results are listed elsewhere or left out.
# T1: UNK ZnF1-3 (human, UniProt Q9C0B0 31-174)
# T1 sequence: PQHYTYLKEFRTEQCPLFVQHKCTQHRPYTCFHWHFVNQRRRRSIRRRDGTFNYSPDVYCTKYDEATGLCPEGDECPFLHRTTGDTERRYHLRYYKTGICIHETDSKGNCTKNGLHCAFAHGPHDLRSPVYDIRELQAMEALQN
# B1: chr12:16048344:16048345:+_ENSG00000023734_ENST00000419869|hu_hu|hu_hu_hu_mus_True|18_38 (ssRNA)
# RNA: GGGAGUUCUACAGUCCGACGAUCAGAUCGUCCAUAAGUAAUAACCAAAAUCUCUCCUUCAGGAAUAUACUCCAUGCUGCUAACAGACAUAUUAAAAUUUAGAGAUUUCACUUCUGUCAUAGUAGCAUGAUCCCAGAGCCGAACCAACAGAGGAUUGAGCAUCA
# B2: chr4:107013644:107013645:+_ENSMUSG00000057375_ENSMUST00000075693|mus_mus|motif|central (ssRNA)
# RNA: GGGAGUUCUACAGUCCGACGAUCCACAUAAUGGUAUGUCUUCUCUCCCAGAUGGAUUAGGAAGUUAGAAAGGUUCCCACGGAUUGCGGUGGCAAAGACCAACGUGGCACAUAUCCAAAAGGGACCAUAGAGAUCUGGAUUGCUCAACAGAGGAUUGAGCAUCA
# B3: chr11:18503389:18503390:-_ENSG00000074319_ENST00000251968|hu_hu|hu_hu_hu_mus_True|18_108 (ssRNA)
# RNA: GGGAGUUCUACAGUCCGACGAUCAUUUUCCAUUUUUUCCAGAGCAGAACUUAGUUCUUCAUCCUUCUUUUUCAAAAGUUCUAUGUUUUUAUCAACUUCAGCUACUUCUUGAUCUAAACGGGUAACCAUCUCUUCCAGUUUCUGCAACAGAGGAUUGAGCAUCA
# B4: chr12:48362563:48362564:+_ENSG00000134291_ENST00000256686|hu_hu|hu_hu_hu_mus_False|78_78 (ssRNA)
# RNA: GGGAGUUCUACAGUCCGACGAUCUCCGUCAAGCCCUUCGAUAGACCCUUGCGGGGGUGGUAAAAACCACUUUGUAUGGGGAAGGAAAAGAAACGCCAAAAACUUUCCAAAAAGCGGGGGUGGGGUGAGGCGGGAGGGGGAGGUCAACAGAGGAUUGAGCAUCA
# B5: chr12:39687547:39687548:-_ENSG00000139116_ENST00000551264|hu_mus|motif|central (ssRNA)
# RNA: GGGAGUUCUACAGUCCGACGAUCUUAGGAAAUCAACAGCUCACCGUCCCAGAAUCCGUGCCCAGCACUAACAACACAACGUCGGCGCAGCAUUUCAAUCCUGAGCACAGAAUGAAGAACAACUGAAAGCUUUGGUCAAUACAGCAACAGAGGAUUGAGCAUCA
# B6: chr2:232320318:232320319:-_ENSG00000115053_ENST00000322723|hu_hu|hu_hu_hu_mus_True|18_38 (ssRNA)
# RNA: GGGAGUUCUACAGUCCGACGAUCACUAUUAAAGUCUACAAAACCAAACCCUUUGGAAGAACCAGUUUCCCGAUCAGUGACUAUUCUUGCACGAACAGAGCCGUCAAAUGAUUCUUUUAAUGUCUCUUCAGUGGUAUCCUCAGACAACAGAGGAUUGAGCAUCA
# Molecular target: T1, UNK ZnF1-3
# Test: nsRBNS (natural sequence RNA bind-n-seq); RBNS binding buffer (assumed for nsRBNS): 25 mM Tris pH 7.5, 150 mM KCl, 3 mM MgCl2, 0.01% Triton X-100, 500 ug/ml BSA, 20 U/ml SUPERase-In, 4 C; UNK is unkempt and MSI1 is Musashi-1; names of the RNAs are library labels; protein concentration not given here; high values mean tight binding
row,Binder,binding signal
1,B1,0.986 enrichment R
2,B2,0.946 enrichment R
3,B3,0.423 enrichment R
4,B4,2.07 enrichment R
5,B5,1.03 enrichment R
6,B6,0.821 enrichment R
